Measured values: the antibiotic and cytotoxicity screens of Wong et al. (2023)
The other results are listed elsewhere or left out.

test system: HepG2; assay: cytotoxicity call (relative viability < 0.9); conditions: 10 µM

| Compound | cytotoxicity call |
| --- | --- |
| Cc1noc(C)c1NC(=O)Nc1ccc2c(c1)C(=O)N([C@@H](C)CO)C[C@@H](C)[C@@H](CN(C)S(=O)(=O)c1cccs1)OCCCC[C@H](C)O2 | inactive |
| O=C(CCCCCNc1nc(=S)[nH]c2ccccc12)N1CCC(O)(c2cccc(C(F)(F)F)c2)CC1 | inactive |
| COc1ccccc1C#Cc1cnc2c(c1)C(=O)N([C@@H](C)CO)C[C@H](C)[C@H](CN(C)S(=O)(=O)c1cn(C)cn1)O2 | inactive |
| Cc1ccnc2c1NC(=O)c1cccnc1N2C1CC1 | inactive |
| COc1ccc(NC(=O)Nc2ccc3c(c2)C(=O)N([C@@H](C)CO)C[C@@H](C)[C@@H](CN(C)Cc2ccc4c(c2)OCO4)OCCCC[C@H](C)O3)cc1 | inactive |
| C[C@H](CO)N1C[C@H](C)[C@H](CN(C)C(=O)c2ccncc2)OCCCC[C@H](C)Oc2ccc(NS(=O)(=O)c3cn(C)cn3)cc2C1=O | inactive |
| C[C@@H]1CN([C@@H](C)CO)C(=O)c2cc(NC(=O)C3CCCCC3)ccc2O[C@@H]1CN(C)Cc1ccc(-c2ccccc2)cc1 | active |
| C[C@H]1CN([C@@H](C)CO)C(=O)CCCn2nncc2CO[C@H]1CN(C)C(=O)Nc1ccc(C(C)(C)C)cc1 | inactive |
| CNC[C@@H]1OCCCC[C@H](C)Oc2ccc(NS(=O)(=O)c3c(C)noc3C)cc2C(=O)N([C@@H](C)CO)C[C@@H]1C | inactive |
| C[C@@H]1CN([C@H](C)CO)C(=O)Cc2cc(NS(=O)(=O)c3cn(C)cn3)ccc2O[C@@H]1CN(C)CC1CC1 | inactive |
| N#CCN(CC#N)C(=O)c1ccco1 | inactive |
